The full ranking holds about 1,100 sequences; the median of “thermal melting temperature (Tm) of peptide-HLA complex” is about 58, and the lowest 2% start at about 42. Some of the results follow.
B1: unnamed (peptide)
chain: LQVEEVHQL
B2: unnamed (peptide)
chain: FLLPKVQSI
B3: unnamed (peptide)
chain: ILYSKTEHL
B4: unnamed (peptide)
chain: NLMKSAFVV
B5: unnamed (peptide)
chain: ILYPKTLFL
B6: unnamed (peptide)
chain: SLADLQNDEV
B7: unnamed (peptide)
chain: LLDGNPFRV
B8: unnamed (peptide)
chain: NLHEGDIIL
B9: unnamed (peptide)
chain: RVFSDIIYTV
B10: unnamed (peptide)
chain: YLTNEGIQYL
B11: unnamed (peptide)
chain: SVDSKPPVI
B12: unnamed (peptide)
chain: KLLEPVLLL
B13: unnamed (peptide)
chain: ILGGPGTVQGV
B14: unnamed (peptide)
chain: SLLEVNEESTV
B15: unnamed (peptide)
chain: NLLKLIAEV
B16: unnamed (peptide)
chain: ALLSGLREA
B17: unnamed (peptide)
chain: NLMDIKIGL
B18: unnamed (peptide)
chain: IMLEALERV
B19: unnamed (peptide)
chain: FLFNTENKL
B20: unnamed (peptide)
chain: SILEDPPSI
B21: unnamed (peptide)
chain: GLWGPEEEPHL
B22: unnamed (peptide)
chain: VLDTLTKVLV
B23: unnamed (peptide)
chain: ALLDIQSSGRA
B24: unnamed (peptide)
chain: FIFSDTHEL
B25: unnamed (peptide)
chain: VLSSDGVWRV
B26: unnamed (peptide)
chain: YLSPDLSKV
B27: unnamed (peptide)
chain: RLQEFIDEV
B28: unnamed (peptide)
chain: YLDPAQRGV
B29: unnamed (peptide)
chain: SLLNQPKAV
B30: unnamed (peptide)
chain: KILVSLIEV
B31: unnamed (peptide)
chain: KLVGEFLEV
B32: unnamed (peptide)
chain: VLNNVVIHL
B33: unnamed (peptide)
chain: LLIPGLATA
B34: unnamed (peptide)
chain: VLIDVGTGYYV
B35: unnamed (peptide)
chain: SLFPHNPQFI
B36: unnamed (peptide)
chain: GLDALKVTV
B37: unnamed (peptide)
chain: SLDDHVVAV
B38: unnamed (peptide)
chain: GLPRFGIEMV
B39: unnamed (peptide)
chain: TLIDLPGITRV
B40: unnamed (peptide)
chain: SLLEKQQIYL
B41: unnamed (peptide)
chain: LLDEEISRV
B42: unnamed (peptide)
chain: EVISKLYAV
B43: unnamed (peptide)
chain: LLDPSVFHV
B44: unnamed (peptide)
chain: KLLWTTSRV
B45: unnamed (peptide)
chain: ILDAGGHNVTI
B46: unnamed (peptide)
chain: QLAEDIEALKV
B47: unnamed (peptide)
chain: QLVDIIEKV
B48: unnamed (peptide)
chain: RLQEDPPVGV
B49: unnamed (peptide)
chain: TLSEVTNQL
B50: unnamed (peptide)
chain: YLLTESSKL
B51: unnamed (peptide)
chain: SLLDIIEKV
B52: unnamed (peptide)
chain: GLVDEKALAQA
B53: unnamed (peptide)
chain: MLNEHDFEV
B54: unnamed (peptide)
chain: GILGIQPPSV
B55: unnamed (peptide)
chain: RMLPHAPGV
B56: unnamed (peptide)
chain: KLLEIDIDGV

These sequences were tested against HLA-A*02:01 (assay: thermal melting temperature (Tm) of peptide-HLA complex; higher = more thermostable pHLA complex). Settings: C1R-A*02:01.
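Also: cell lysates heated 10 min at 37–73 °C, remaining pHLA pulled down with pan-class I antibody, peptides quantified by DIA-MS versus 37 °C, Tm where half the complex is lost.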

Sequence | thermal melting temperature
B1 | 53.2 °C
B2 | 63 °C
B3 | 50.9 °C
B4 | 51.4 °C
B5 | 61.8 °C
B6 | 61.6 °C
B7 | 56.6 °C
B8 | 48.3 °C
B9 | 54.8 °C
B10 | 63 °C
B11 | 48.3 °C
B12 | 59.4 °C
B13 | 57.5 °C
B14 | 59.6 °C
B15 | 59.7 °C
B16 | 62.6 °C
B17 | 56.7 °C
B18 | 59.6 °C
B19 | 54.7 °C

Sequence | thermal melting temperature
B20 | 59.4 °C
B21 | 61.8 °C
B22 | 46.3 °C
B23 | 53 °C
B24 | 54.4 °C
B25 | 56.3 °C
B26 | 61.9 °C
B27 | 62.7 °C
B28 | 62.8 °C
B29 | 58.7 °C
B30 | 57.3 °C
B31 | 45.7 °C
B32 | 60.3 °C
B33 | 61 °C
B34 | 56 °C
B35 | 58.8 °C
B36 | 53.9 °C
B37 | 60.2 °C
B38 | 60.1 °C

Sequence | thermal melting temperature
B39 | 56.9 °C
B40 | 60.5 °C
B41 | 56.3 °C
B42 | 45.4 °C
B43 | 61.8 °C
B44 | 60.1 °C
B45 | 54.5 °C
B46 | 58.9 °C
B47 | 58 °C
B48 | 61.3 °C
B49 | 58.1 °C
B50 | 55.2 °C
B51 | 63.1 °C
B52 | 58 °C
B53 | 57.8 °C
B54 | 60.5 °C
B55 | 60.3 °C
B56 | 58 °C
